The supplement of paper PMC3334620
The full ranking holds about 33,000 sequences; the median of “E-score (-0.5 to 0.5)” is about -0.035, and the highest 2% start at about 0.34. The list shows a part of the results.

Molecular target: T1, Mot3 (UniProt P54785)
T1 sequence: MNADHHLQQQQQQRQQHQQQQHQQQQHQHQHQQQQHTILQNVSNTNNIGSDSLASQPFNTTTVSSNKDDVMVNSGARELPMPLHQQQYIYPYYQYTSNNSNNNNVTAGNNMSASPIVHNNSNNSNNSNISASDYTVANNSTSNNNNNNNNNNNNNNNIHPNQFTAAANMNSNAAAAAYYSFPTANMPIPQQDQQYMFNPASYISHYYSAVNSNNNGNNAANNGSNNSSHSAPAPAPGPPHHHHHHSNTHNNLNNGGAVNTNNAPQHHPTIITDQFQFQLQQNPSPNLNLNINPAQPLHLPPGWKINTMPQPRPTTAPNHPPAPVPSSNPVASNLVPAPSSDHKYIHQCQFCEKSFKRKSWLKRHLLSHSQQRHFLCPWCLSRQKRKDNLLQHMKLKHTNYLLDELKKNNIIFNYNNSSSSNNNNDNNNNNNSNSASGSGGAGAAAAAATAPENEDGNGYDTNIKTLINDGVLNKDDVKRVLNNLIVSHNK
Assay: PBM E-score (8-mer binding enrichment) (E-score (-0.5 to 0.5)); higher = stronger / more preferred TF binding; most listed sequences are background and not binding sites
Conditions: protein concentration: 200 nM; construct: GST-full length
Method in brief: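 PURExpress in vitro transcription/translation supplied GST-tagged yeast transcription factors, either full-length or DNA-binding domain. Applied at about 100-200 nM to universal all-10-mer Agilent arrays double-stranded by primer extension, the bound protein was detected with fluorescent anti-GST. E-scores, modified Wilcoxon-Mann-Whitney statistics, were given by the Universal PBM Analysis Suite to ungapped eight-base words pooled with their reverse complements after masliner normalisation.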

Row | Sequence | PBM E-score
1 | CGACCCAC | -0.213
2 | AATCTTCA | 0.00303
3 | CAATGGCA | -0.0685
4 | AGCTATGC | -0.0718
5 | AACTATCC | -0.344
6 | AATTCTGT | -0.158
7 | GCCGAACC | -0.203
8 | GGTGGGAC | -0.176
9 | AACAATTA | 0.185
10 | CTACTTAC | 0.161
11 | CATCTGAC | -0.268
12 | ACTATTTA | 0.167
13 | AATCCGCG | 0.144
14 | CGATCGAA | -0.156
15 | ATGGCGCA | -0.186
16 | AGCCGGGG | -0.393
17 | CCTACCCG | 0.0449
18 | GAGTAGTA | -0.00293
19 | CCAGTACC | -0.179
20 | CACATAGC | 0.0621
21 | GCGTTTCA | 0.0563
22 | CCCTTGGA | -0.159
23 | CCAGCGTA | -0.0545
24 | ACTGAAAG | 0.0927
25 | GGTGTCCA | -0.237

Row | Sequence | PBM E-score
26 | CTACGCAC | 0.122
27 | ATTACACC | 0.299
28 | CGTTACAC | 0.274
29 | CGTTCCTC | 0.167
30 | AACCGAGG | -0.172
31 | CACTGTTA | 0.0232
32 | CCTAACGC | 0.158
33 | CATCAGTA | 0.00031
34 | AGCTGAAT | -0.0351
35 | AACCGCAG | -0.189
36 | CATCATGA | 0.051
37 | ACGACTCC | -0.121
38 | ACCGCTGC | -0.0644
39 | CATTGTAA | 0.303
40 | ATAACTTA | 0.174
41 | AGTGGAAT | -0.108
42 | CGACTGAG | -0.274
43 | CATTAACA | 0.299
44 | GAGTTGTA | 0.124
45 | CCCCGCCG | -0.245
46 | CTCGCTTA | -0.127
47 | ATCTGCCA | -0.14
48 | ATATGGTC | -0.0461
49 | CCACGCAC | -0.152
50 | AAATTGTT | 0.00218

Row | Sequence | PBM E-score
51 | ACAGCTGC | 0.00393
52 | ATGATTGA | 0.0645
53 | ATAACCTG | 0.0318
54 | ACCACACA | 0.219
55 | CTGACCTA | -0.146
56 | GGAGGGCC | -0.359
57 | AATCGCGA | -0.104
58 | CCGATCCG | -0.25
59 | TATGTCAA | 0.363
60 | AGACGGCA | -0.122
61 | ATGGCGCC | -0.126
62 | CCATAAGC | -0.25
63 | AAGTCGCA | 0.0858
64 | CCTATCGC | -0.0459
65 | ATACCTCG | 0.121
66 | AAGCGGGC | -0.329
67 | ACGAGCCA | -0.0579
68 | GATTGACC | -0.0422
69 | AGCCATCG | -0.203
70 | GACTGATC | -0.0852
71 | AAGCCCGC | -0.15
72 | GCCACAAC | -0.0631
73 | CCACAGGC | 0.194
74 | AGAGCGCC | 0.0468
75 | AGTACCGA | -0.209

Row | Sequence | PBM E-score
76 | AGACATTC | 0.0131
77 | CCAAAGAA | 0.142
78 | CAGACCAG | -0.199
79 | CCTGTGCA | 0.0831
80 | AGTCTAAT | 0.0256
81 | GATTGACA | 0.205
82 | AGGGTCTG | -0.219
83 | AAGAGAGC | -0.0425
84 | CCGGTAAA | -0.0959
85 | GGCAAGGA | 0.27
86 | CAGCACTG | -0.289
87 | CACTGTAG | 0.127
88 | ATAGATAA | -0.0938
89 | ACTCGACC | -0.0893
90 | GCCAGCAA | -0.0709
91 | GGCGGACC | -0.372
92 | CCCGTTGA | -0.205
93 | CTAAACAC | 0.241
94 | ACGACTAA | -0.0575
95 | AAAGTAAG | 0.0328
96 | CATCGGGC | -0.282
97 | TGGATACA | 0.12
98 | ACCGCCCT | -0.196
99 | CAGATTGC | -0.0432
100 | GGCGGGAA | -0.121

Row | Sequence | PBM E-score
101 | CTCATCCC | -0.188
102 | ACGACTAT | 0.0582
103 | CACCTCAG | -0.0765
104 | CGTGAGGC | -0.0726
105 | CAAGGCCA | 0.0593
106 | AGGGATCG | -0.125
107 | CATCGATA | 0.0964
108 | GGCGCCAC | -0.253
109 | CAGCTTCC | -0.155
110 | GTGGGAAC | -0.262
111 | CGCCGACG | -0.0725
112 | ACACCCCC | -0.0289
113 | GATTCCGC | -0.18
114 | TCCAAGCA | 0.0974
115 | CACGGTCG | -0.215
116 | TCTAGGCA | 0.458
117 | CTGTCTAA | 0.0585
118 | CGCGAGGA | -0.201
119 | ACTTGTAA | 0.28
120 | AAATAAGC | -0.0442
121 | GCTGGTCC | -0.283
122 | AATATGTC | 0.147
123 | CGGTACCG | -0.156
124 | ACGGTGGG | -0.145
125 | ATCGTAAC | 0.0819

Row | Sequence | PBM E-score
126 | GGCTTTTA | 0.0764
127 | ATTTAGTC | 0.0594
128 | GCCAACTA | -0.00052
129 | CCCGTGTC | 0.082
130 | CAGAGGAA | 0.0456
131 | TGTCGTAA | 0.211
132 | CCATTCGC | -0.267
133 | CGAAAAGC | -0.23
134 | CTTGGGGA | -0.0853
135 | ACTCGCAT | -0.117
136 | CACATGCC | 0.178
137 | CCGTAAGG | -0.00957
138 | GTTAGATA | 0.13
139 | ACTAGGCC | -0.141
140 | TGACAACA | 0.194
141 | CACGCGAG | 0.014
142 | GAGCAGAC | -0.249
143 | AGAGGTGG | -0.124
144 | AGTAAAGG | 0.258
145 | GAACCTCC | -0.127
146 | GGTGACGA | -0.103
147 | CAGCTCCC | -0.288
148 | AATATCTA | 0.0219
149 | ATTAAACA | 0.179
150 | ATGAACGA | -0.0267

Row | Sequence | PBM E-score
151 | TGACCAAA | 0.017
152 | AATAATCT | -0.0232
153 | ATTAGGCG | -0.0797
154 | GGAACCTA | 0.293
155 | CGCCTACG | 0.125
156 | ACTGAATG | -0.0384
157 | TTCAGGAA | 0.337
158 | CTTGCCAA | -0.0295
159 | AAAGACCA | -0.203
160 | ATGACATC | 0.05
161 | CCCTAGGG | -0.328
162 | CACCTCAA | 0.0603
163 | AGAAAGAT | 0.111
164 | CTTCCTTC | -0.227
165 | CATACTTC | -0.112
166 | GTAACCAC | 0.119
167 | TGCGGCAA | 0.0464
168 | GCCCACAC | -0.212
169 | AATAGGGG | -0.178
170 | CGCAGGAG | -0.0652
171 | ACGGTAGT | -0.173
172 | AAGGTGTC | 0.129
